Results reported in the antibiotic and cytotoxicity screens of Wong et al. (2023).
The other results are listed elsewhere or left out.

system: HepG2; experiment: cytotoxicity call (relative viability < 0.9); details: 10 µM

Q: For `C[C@H]1CCCCO[C@H](CN(C)S(=O)(=O)c2ccc(F)cc2)[C@@H](C)CN([C@@H](C)CO)C(=O)c2cc(NC(=O)Nc3cccc4ccccc34)ccc2O1`, which cytotoxicity call is on record?
A: inactive

Q: `N=C(N)SCCN1C(=O)c2ccccc2C1=O` was tested. Which cytotoxicity call did it give?
A: inactive

Q: With `COc1ccc(-c2cc(C(F)F)nn2-c2ccc(S(N)(=O)=O)cc2)cc1F` as the molecule, how does the cytotoxicity call read?
A: inactive

Q: How did the cytotoxicity call turn out when `CO[C@@H]1CN(C)C(=O)c2ccc(NS(=O)(=O)CC(F)(F)F)cc2OC[C@H](C)N(C(=O)NC(C)C)C[C@H]1C` was run?
A: inactive

Q: With `COc1ccc(CN2C[C@H](C)[C@@H](OC)CN(C)C(=O)c3ccc(NC(=O)c4nc5ccccc5s4)cc3OC[C@@H]2C)cc1` as the molecule, how does the cytotoxicity call read?
A: inactive

Q: For `COC1=C(O)C(=O)c2c(cc3oc(C(C)=O)c(O)c3c2O)C1=O`, which cytotoxicity call is on record?
A: inactive

Q: For `COc1ccc2c3c([nH]c2c1)[C@H](CO)N(Cc1ccc(cc1)Cl)C[C@]13CCN(CC1)Cc1nccs1`, which cytotoxicity call is on record?
A: inactive

Q: Which cytotoxicity call does the source give for `C[C@@H]1CN([C@@H](C)CO)C(=O)c2cc(NC(=O)C3CCCCC3)ccc2O[C@@H](C)CCCCO[C@@H]1CN(C)C(=O)Nc1ccc(F)cc1` here?
A: inactive

Q: For `Cc1noc(C)c1NC(=O)N(C)C[C@@H]1OCCCC[C@H](C)Oc2ccc(NS(=O)(=O)c3ccc(Cl)cc3)cc2C(=O)N([C@@H](C)CO)C[C@H]1C`, which cytotoxicity call is on record?
A: inactive

Q: How did the cytotoxicity call turn out when `N=C(N)SCc1ccc(B(O)O)cc1` was run?
A: inactive

Q: For `Cc1ccc(S(=O)(=O)Nc2ccc3c(c2)C(=O)N([C@@H](C)CO)C[C@@H](C)[C@@H](CN(C)S(=O)(=O)c2ccc(C)cc2)OCCCC[C@@H](C)O3)cc1`, which cytotoxicity call is on record?
A: inactive

Q: With `COc1ccc(NC(=O)Nc2ccc3c(c2)C(=O)N([C@H](C)CO)C[C@H](C)[C@@H](CN(C)Cc2ccncc2)OCCCC[C@H](C)O3)cc1` as the molecule, how does the cytotoxicity call read?
A: inactive
